Reference: PubChem BioAssay AID624417 (National Center for Advancing Translational Sciences (NCATS), 2012)
Where “and” joins values, the source holds several entries; their conditions need not be identical. Equal values may be shown once. Hit rate of the full screen: of about 410,000 compounds, about 6,400 (1.6%) were called active. This list was built around the results that the source calls inconclusive (neither active nor inactive); the mix of calls is not that of the screen. Calls come from the whole dose curve; as a rule, active = well fitted inhibition curve with a large enough effect; inconclusive = small, poorly fitted or top-dose-only effect; inactive = no such curve, though single readings can be large or run the other way. A potency beside an inconclusive call is a rough fit, not a confirmed value.

These compounds were tested against Glucagon-like peptide 1 receptor (Homo sapiens) (UniProt P43220) (assay: qHTS of GLP-1 Receptor Inverse Agonists (Inhibition Mode)). Settings: HEK293 GLP-1R CRE-luciferase, luminescence, 24 h, GLP-1R form is constitutively active; activity change, negative = inhibition: at 38.3 µM (top of the series) unless noted.
Chain of UniProt P43220 (P43220 whole entry, looked up): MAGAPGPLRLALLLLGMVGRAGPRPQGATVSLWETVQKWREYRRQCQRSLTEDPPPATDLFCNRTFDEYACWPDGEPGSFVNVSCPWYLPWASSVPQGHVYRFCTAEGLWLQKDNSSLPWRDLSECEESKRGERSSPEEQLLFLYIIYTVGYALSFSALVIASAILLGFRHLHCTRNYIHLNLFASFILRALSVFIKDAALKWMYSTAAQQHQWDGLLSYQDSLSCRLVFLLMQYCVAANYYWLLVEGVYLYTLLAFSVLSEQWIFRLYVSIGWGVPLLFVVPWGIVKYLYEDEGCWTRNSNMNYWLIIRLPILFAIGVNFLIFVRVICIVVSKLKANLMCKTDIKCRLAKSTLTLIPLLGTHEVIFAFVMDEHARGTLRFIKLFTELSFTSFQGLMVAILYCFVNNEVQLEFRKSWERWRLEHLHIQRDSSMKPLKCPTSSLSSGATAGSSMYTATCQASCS
Summary of the method: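 Stable HEK293 clone (constitutively active GLP-1R + cAMP-response luciferase); 200 cells/uL plated, 12 h pre-culture, compound 24 hr, 37 deg C/5% CO2; detection reagent 12 min RT; luminescence.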
% is set by controls: 0 for no effect and ±100 for the full control effect; potency is the fitted concentration of half-maximal effect; tags give direction and shape of the fitted curve.
Note: nearly all actives have a fitted effect of over 55% in size.

| SMILES | activity change, negative = inhibition | Potency |
| --- | --- | --- |
| CN(CCO)c1cc(NCCCN2CCC(Cc3ccccc3)CC2)c2nonc2c1[N+](=O)[O-] | inactive: 1.19% [at 0.307 µM] |  |
| CCN(CC)c1ccc(/C=C/c2cccc[n+]2C)c(OC)c1 | inactive: -16.1% |  |
| CC(=O)Nc1ccc(S(=O)(=O)N2CCC(C(=O)c3ccc(Cl)cc3)CC2)cc1 |  | inconclusive: 28.2 µM [inhibitor, partial curve, poor fit] |
| COc1ccc(CN2CCN(S(=O)(=O)c3ccc(C)cc3)CC2)cc1Br |  | inconclusive: 11.2 µM [inhibitor, single point] |
| O=C(/C=C/c1ccc2c(c1)OCO2)NCCS(=O)(=O)N1CCN(c2ccc(F)cc2)CC1 |  | inconclusive: 1.78 µM [inhibitor, full curve, poor fit] |
| Cc1ccc2c(c1)C(c1ccc(F)cc1)N(C(=O)c1cccc(C(F)(F)F)c1)CC(=O)N2 (centres undefined) |  | inconclusive: 12.6 µM [inhibitor, single point] |
| COc1cccc(N2CCN(Cc3cc(=O)oc4cc(C)ccc34)CC2)c1 | inactive: -0.652% |  |
| O=C(CC1Nc2cccc3cccc(c23)NC1=O)Nc1ccc(F)cc1 (centres undefined) |  | inconclusive: 14.1 µM [inhibitor, single point] |
| Oc1ccc(Cl)cc1N=Cc1sc2ccccc2c1Cl |  | inconclusive: 7.94 µM [inhibitor, partial curve, poor fit] |
| O=C(COC(=O)c1ccc(Cl)c(S(=O)(=O)N2CCCCC2)c1)NCCc1ccccc1 | inactive: -10.7% |  |
| CCOC(=O)c1c(C)sc2c1N(C(=O)CN(CC)CC)c1ccccc1S2 |  | inconclusive: 17.8 µM [inhibitor, partial curve, poor fit] |
| CCN(CC(=O)Nc1ccc(NC(C)=O)cc1)C(=O)c1ccc(=O)[nH]c1 | inactive: -1.69% |  |
| CCN1CCN(c2ccc(S(=O)(=O)N3CCCCC3)cc2NC(=O)Cc2ccc(OC)cc2)CC1 |  | inconclusive: 17.8 µM [inhibitor, single point] |
| COc1ccc(Cl)cc1-n1c(=S)sc2c(=O)[nH]c(SCC(=O)C(C)(C)C)nc21 |  | inconclusive: 14.1 µM [inhibitor, single point] |
| N#Cc1cccc(NC(=O)c2cc(C3CCCCN3S(=O)(=O)c3cccc4cccnc34)on2)c1 (centres undefined) |  | inconclusive: 28.2 µM [inhibitor, single point] |
| C[C@@H](NC(=O)c1ncn(C)c1C(=O)N[C@H](C)c1ccccc1)c1ccccc1 |  | inconclusive: 10 µM [inhibitor, partial curve, poor fit] |
| C/C(=N\NC(N)=S)C1C2C3CC4C5CC(C42)C1C53 (centres undefined) |  | inconclusive: 8.91 µM [inhibitor, partial curve, poor fit] |
| Cc1ccc(Oc2c(C=O)c3ccccc3n2C)cc1 |  | active: 5.01 µM |
| CCCCNC(=S)N1CCN(c2ccccc2Cl)CC1 |  | inconclusive: 10 µM [inhibitor, partial curve, poor fit] |
| Cc1ccc(C)c(OCC(=O)N2CCN(C(=O)c3ccco3)CC2)c1 | inactive: 0% |  |
| CC(Cc1cccs1)NC(=O)Nc1ccc([N+](=O)[O-])cc1 (centres undefined) |  | inconclusive: 11.2 µM [inhibitor, partial curve, poor fit] |
| Cc1ccc(NC(=O)CN(C)C(=O)Cc2c(Cl)cccc2Cl)cc1 |  | inconclusive: 8.91 µM [inhibitor, partial curve, poor fit] |

| SMILES | activity change, negative = inhibition | Potency |
| --- | --- | --- |
| O=C(CN1CCN(c2ccccn2)CC1)NC(=O)NC1CCCCC1 |  | inconclusive: 5.62 µM [inhibitor, partial curve] |
| Cc1[nH]c2ccccc2c1/C=N/NC(=O)CCC(=O)Nc1ccccc1 |  | inconclusive: 20 µM [inhibitor, single point] |
| Cc1ccc(C(=O)CC2(O)C(=O)N(Cc3ccccc3)c3ccccc32)c(C)c1 (centres undefined) |  | inconclusive: 14.1 µM [inhibitor, partial curve, poor fit] |
| COC(C(=O)NC1CCCCCCC1)c1ccccc1 (centres undefined) |  | inconclusive: 28.2 µM [inhibitor, single point] |
| Cc1ccc2c(CC(=O)N(Cc3cccc(Cl)c3)C3CCS(=O)(=O)C3)coc2c1 (centres undefined) |  | inconclusive: 20 µM [inhibitor, single point] |
| Cc1ccccc1Nc1c(-c2ccccn2)nc2ccccn12 |  | inconclusive: 28.2 µM [inhibitor, single point] |
| C/C(=N\Nc1nc2c(s1)CCCC2)c1ccc(Cl)cc1 |  | inconclusive: 28.2 µM [inhibitor, single point] |
| COc1ccc(CC(=O)NCc2ccccc2)cc1S(=O)(=O)N1CCOCC1 | inactive: 2.65% |  |
| O=C(Nc1ccc2[nH]ccc2c1)c1ccc(F)cc1 |  | inconclusive: 8.91 µM [inhibitor, partial curve] |
| O=C(CCS(=O)(=O)Cc1ccccc1)Nc1ncc([N+](=O)[O-])s1 |  | inconclusive: 31.6 µM [inhibitor, partial curve, poor fit] |
| CCOC(=O)c1ccc2[nH]c3c(c2c1)CCCC3O (centres undefined) | inactive: -3.09% |  |
| Cc1cc(/C=N/NC(=O)CC2(C)OCCO2)c(C)n1-c1cc(Cl)cc(Cl)c1 |  | inconclusive: 7.08 µM [inhibitor, partial curve, poor fit] |
| C=C(C)c1cccc(C(C)(C)NC(=O)N2CCN(c3ccccn3)CC2)c1 |  | inconclusive: 28.2 µM [inhibitor, single point] |
| CC[C@]12c3[nH]c4cc(-c5ccco5)ccc4c3CCN1C(=O)[C@@H](CC(=O)NCc1cccc(C(F)(F)F)c1)C[C@@H]2C(=O)N1CCN(C(=O)C2CC2)CC1 |  | inconclusive: 28.2 µM [inhibitor, single point] |
| CSc1nnc(-c2ccc(S(=O)(=O)N3CCCCC3)cc2)o1 | inactive: 29.6% |  |
| COc1ccc2c(C)cc(SCC(=O)Nc3cc(C(N)=O)cc(C(N)=O)c3)nc2c1 |  | inconclusive: 28.2 µM [inhibitor, single point] |
| CC(=O)c1ccc2c(c1)N(CCCN1CCC(CCO)CC1)c1ccccc1S2 |  | inconclusive: 7.08 µM [inhibitor, partial curve, poor fit] |
| Cc1ccc(-c2csc3ncn(CC(=O)NCC(c4ccco4)N4CCCC4)c(=O)c23)cc1 (centres undefined) |  | inconclusive: 28.2 µM [inhibitor, single point] |
| CCCSc1nnc2n(-c3cccc(C)c3)c(=O)c3c4c(sc3n12)CCCC4 | inactive: -1.87% |  |
| O=C(Cc1ccc([N+](=O)[O-])cc1)OCc1c(F)cccc1Cl |  | inconclusive: 20 µM [inhibitor, single point] |
| CCN(CC)CCCNC(=S)N(Cc1cccnc1)Cc1cc2cc(C)cc(C)c2[nH]c1=O |  | inconclusive: 28.2 µM [inhibitor, single point] |
| O=C(O)c1cccc(Nc2ccc([N+](=O)[O-])c3nonc23)c1 | inactive: 17.2% |  |

| SMILES | activity change, negative = inhibition | Potency |
| --- | --- | --- |
| O=C(CSc1ccccn1)N/N=C/c1c[nH]c2ccccc12 | inactive: 0.486% |  |
| Oc1ccc(N=Nc2ccc3c(c2)OCCO3)c2ncccc12 |  | inconclusive: 2.24 µM [inhibitor, full curve, poor fit] |
| Cc1ccc(C)c(CN2CCN(c3ncccn3)CC2)c1 |  | inconclusive: 3.16 µM [inhibitor, single point] |
| Cc1ccc(CN2C(=O)C(CC(C)C)Nc3ncnc(N4CCCCC4)c32)cc1 (centres undefined) |  | inconclusive: 28.2 µM [inhibitor, single point] |
| Cc1ccc(C(=O)OCC(=O)Nc2ccccc2Cl)c(O)c1 | inactive: 2.54% |  |
| COc1cccc(Nc2sc(C(=O)c3ccc(Cl)cc3)c(N)c2C(=O)NCCc2ccc(OC)c(OC)c2)c1 |  | inconclusive: 28.2 µM [inhibitor, single point] |
| O=C(CN1C(=O)S/C(=C\c2ccccc2Cl)C1=O)NCCCn1ccnc1 |  | inconclusive: 28.2 µM [inhibitor, single point] |
| O=C(N/N=C/c1cccc2nccnc12)c1ccncc1 | inactive: 14.1% |  |
| CCOC(=O)Cc1ccc(Nc2nc3cc(-c4ccccc4C)sc3c(=O)n2C)cc1 |  | inconclusive: 11.2 µM [inhibitor, partial curve, poor fit] |
| NC(=O)c1cc(Br)cc2c3c([nH]c12)CCCC3 |  | inconclusive: 28.2 µM [inhibitor, single point] |
| Oc1cccc2ccc[n+](CC(O)Cn3c4ccccc4c4ccccc43)c12 (centres undefined) |  | inconclusive: 12.6 µM [inhibitor, partial curve, poor fit] |
| CC(C)(C)c1nc2scc(-c3ccc(Cl)cc3)c2c(=O)o1 | inactive: 0.443% |  |
| CCCCc1ccc(NC(=O)Nc2cnccn2)cc1 |  | inconclusive: 20 µM [inhibitor, single point] |
| CC(/C=C/c1ccccc1)=N\NC(=O)CCc1ccccc1 |  | inconclusive: 11.2 µM [inhibitor, partial curve, poor fit] |
| O=C(c1ccc2c(c1)N(Cc1ccccc1)CCS2)N1CCCCC1 |  | inconclusive: 10 µM [inhibitor, partial curve] |
| COc1ccc(OC)c(Nc2c3c(nc4ccccc24)CCC3)c1 |  | inconclusive: 1.26 µM [inhibitor, full curve, poor fit] and inconclusive: 708 nM [inhibitor, full curve, poor fit] |
| CCCN(Cc1cccs1)C(=O)Nc1ccc(F)c(Cl)c1 |  | inconclusive: 2.51 µM [inhibitor, partial curve, poor fit] |
| CC(=O)C1=CCC(c2ccc(C(C)C)cc2)N(S(=O)(=O)c2ccc(C)cc2)C1 (centres undefined) |  | inconclusive: 12.6 µM [inhibitor, single point] |
| Cc1cc(C)c(CN2C(=O)c3ccccc3S(=O)(=O)c3ccc(C(=O)OCC4CCCO4)cc32)c(C)c1 (centres undefined) | inactive: -22.1% |  |
| CCS(=O)(=O)c1ncc(Cl)c(C(=O)N(Cc2ccccc2)c2ccc(OC)cc2)n1 |  | inconclusive: 15.8 µM [inhibitor, partial curve, poor fit] |
